From US20210138025A1, “CATIONIC PEPTIDES WITH IMMUNOMODULATORY AND/OR ANTI-BIOFILM ACTIVITIES” (priority 2018, published 2021)
Entries after “also recorded” stand apart in the source; their conditions may differ. At least one peptide structure holds a part that was inferred or is arguable (an end, a ring closure or a residue). Some entries repeat one wording, which the source may state once for all of them. Some entries share one result that the patent states for a list of compounds. No end group written: not given here.

What was measured:
S. aureus (MRSA SAP0017) = assay type: cell-based, Staphylococcus aureus; settings: for % Residual MRSA biofilm growth compared to untreated control: SPOT synthesized peptide, ~12.5 μM, clinical MRSA strain, crystal violet assay
How it was run: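 Static biofilm assay: 1/100 dilutions of overnight cultures grown with peptide at varying concentrations, added at time zero, in BM2 biofilm medium or tryptic soy broth plus 1% glucose in polypropylene plates. After 22-46 h, adherent biofilm stained with crystal violet and absorbance read at 595 nm.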

[1] = Peptide aggregation in sodium phosphate buffer, turbidity at 600 nm; assay type: physicochemical; settings: 1 mg/ml peptide, sodium phosphate buffer pH 7.0, turbidity at 600 nm
[2] = tested on: P. aeruginosa Liverpool epidemic strain LESB58; assay: Mouse chronic abscess model vs Pseudomonas aeruginosa; assay type: in vivo, mice; settings: 10 mg/kg intra-abscess injection 2 hours after infection, measured after 3 days
MRSA USA300 LAC = assay: Mouse abscess model of high density MRSA infection; assay type: in vivo, CD-1 mice; settings: 14 mg/kg intra-abscess one hour after infection
MCP-1 = MCP-1 chemokine induction in human PBMCs, ELISA (Tables 6, 7; FIGS. 6-9, 13); assay type: cell-based; settings: for MCP1 production in PBMC: SPOT synthesized peptide alone, ~25 μM, PBMCs from 3 human donors, Table 6
MRSA biofilms = MRSA biofilms grown in flow cells, treatment of pre-formed 2-day old biofilms; settings: 2-day old MRSA biofilms in flow cells
PBMCs = assay: Cytotoxicity towards PBMCs, lactate dehydrogenase (LDH) release assay (Tables 6, 7); settings: compared with 1018
13 bacterial strains = assay: MIC panel summary: number of the 13 bacterial strains affected; assay type: cell-based; settings: of the 13 bacterial strains evaluated (MIC)
CCL5 [3] = assay: CCL5 production by peptide alone and in presence of LPS, bovine cells (Table 21); assay type: cell-based; settings: for % CCL5 production relative to that of LPS/ConA: peptide 32 μg/ml
Procedure: (§1) A subset of peptides was tested for stimulation of the chemokine CCL5 (Table 21).

CCL5 [4] = assay: CCL5 production by peptide alone and in presence of Con A, canine cells (Table 21); assay type: cell-based; settings: peptide 32 μg/ml
Procedure: as §1

LPS stimulated monocytes = assay: Anti-inflammatory activity in LPS stimulated monocytes, bovine (Table 23); assay type: cell-based; settings: 32 μg/ml peptide, negative = increase
[5] = tested on: ConA stimulated monocytes; assay: Anti-inflammatory activity in ConA stimulated monocytes, canine (Table 23); assay type: cell-based; settings: 32 μg/ml peptide, negative = increase
T-lymphocytes [6] = assay: Anti-inflammatory activity towards stimulated T-lymphocytes, bovine (Table 25); assay type: cell-based; settings: Bovine T-cells, 32 μg/ml of peptide
T-lymphocytes [7] = assay: Anti-inflammatory activity towards stimulated T-lymphocytes, canine (Table 25); assay type: cell-based; settings: Canine T-cells, 32 μg/ml of peptide

## ILVRWIRWRIQW-NH2 [Peptide 3002, ILVRWIRWRIQW]
S. aureus (MRSA SAP0017)
  % Residual MRSA biofilm growth compared to untreated control: 7%
S. aureus (MRSA SAP0017); peptide >95% purity, static microtitre plate assay
  improvement on the antibiofilm potency compared to 1018: 8 fold
S. aureus (MRSA SAP0017); peptide >95% purity, static microtitre plate assay, MRSA
  antibiofilm activity compared to 1018 (in words): enhanced ability to inhibit MRSA biofilm formation compared to 1018; also recorded: superior and/or equivalent anti-biofilm activity compared to peptide 1018
S. aureus (MRSA SAP0017); peptide >95% purity, static microtitre plate assay, crystal violet
  peptide concentration that strongly / substantially inhibited MRSA biofilm growth: 1 µM
[1]
  aggregation in phosphate buffer (turbidity, in words): almost no aggregation
[1]; listed as Peptide 3002
  aggregation in phosphate buffer (turbidity, in words): considerably lower aggregation than 1018
[2]
  reduction of abscess size (in words): superior to 1018
MRSA USA300 LAC; 3 days
  bacterial burden within the abscess (in words): unaffected by peptide treatment
MRSA USA300 LAC; monitored for 3 days
  abscess size (in words): significantly reduced the abscess size
MCP-1
  MCP1 production in PBMC: 1152 pg/mL
MRSA biofilms
  peptide concentration eradicating / substantially reducing pre-formed MRSA biofilms: 0.125 µM
PBMCs
  toxicity: cytoxicity towards PBMCs and/or hemolysis towards RBCs (in words): low toxicity

## LWQLWLKLKLKG-NH2 [Peptide 3013, LWQLWLKLKLKG]
S. aureus (MRSA SAP0017)
  % Residual MRSA biofilm growth compared to untreated control: 76%
13 bacterial strains
  number of bacterial strains with antibacterial effects: 6
MCP-1
  MCP1 production in PBMC: 6387 pg/mL
MCP-1; peptide >95% purity
  MCP1 induction from PBMCs compared to 1018 (in words): stronger MCP1 inducing abilities than 1018
CCL5 [3]; Bovine/LPS Monocyte
  % CCL5 production relative to that of LPS/ConA: 37%
CCL5 [3]; Bovine/LPS T-cells
  % CCL5 production relative to that of LPS/ConA: 35%
CCL5 [3]; LPS stimulated
  anti-inflammatory effect (CCL5) in LPS stimulated bovine cells (in words): The exceptions were again peptides 3013 and 3015
CCL5 [3]; no LPS
  induction of chemokine CCL5 by peptide on its own, bovine cells (in words): except for peptides 3013 and 3015 treated bovine cells
CCL5 [4]; Canine/ConA Monocyte
  % CCL5 production relative to that of LPS/ConA: 123%
CCL5 [4]; Canine/ConA T-cells
  % CCL5 production relative to that of LPS/ConA: 95%
LPS stimulated monocytes
  % Monocyte cytokine decrease in presence of LPS/ConA, IFNγ: 93.6%
  % Monocyte cytokine decrease in presence of LPS/ConA, IL-2: 21.8%
  % Monocyte cytokine decrease in presence of LPS/ConA, IL-4: 46.8%
  % Monocyte cytokine decrease in presence of LPS/ConA, IL-6: 6.4%
  % Monocyte cytokine decrease in presence of LPS/ConA, IL-13: 85.6%
  % Monocyte cytokine decrease in presence of LPS/ConA, TNFα: 50.9%
[5]
  % Monocyte cytokine decrease in presence of LPS/ConA, IFNγ: −1.9%
  % Monocyte cytokine decrease in presence of LPS/ConA, IL-2: 32.3%
  % Monocyte cytokine decrease in presence of LPS/ConA, IL-4: 13.5%
  % Monocyte cytokine decrease in presence of LPS/ConA, IL-6: −5.9%
  % Monocyte cytokine decrease in presence of LPS/ConA, IL-13: 42.1%
  % Monocyte cytokine decrease in presence of LPS/ConA, TNFα: 40.1%
T-lymphocytes [6]
  % Cytokine decrease in the presence of LPS/ConA: IFNγ: 52.3%
  % Cytokine decrease in the presence of LPS/ConA: IL-2: 37.5%
  % Cytokine decrease in the presence of LPS/ConA: IL-4: 69.2%
  % Cytokine decrease in the presence of LPS/ConA: IL-6: 4.9%
  % Cytokine decrease in the presence of LPS/ConA: IL-13: 89.3%
  % Cytokine decrease in the presence of LPS/ConA: TNFα: 17.5%
T-lymphocytes [7]
  % Cytokine decrease in the presence of LPS/ConA: IFNγ: 58.9%
  % Cytokine decrease in the presence of LPS/ConA: IL-2: 90.5%
  % Cytokine decrease in the presence of LPS/ConA: IL-4: 50.9%
  % Cytokine decrease in the presence of LPS/ConA: IL-6: 38.8%
  % Cytokine decrease in the presence of LPS/ConA: IL-13: 43.8%
  % Cytokine decrease in the presence of LPS/ConA: TNFα: 43.4%
